# Results: PubChem BioAssay (Tox21)
# “And” between values parts separate entries of the source, which are not always exact repeats. Equal entries are not always repeated. The inconclusive results got no clear call from the source; some entries with a clear call stand among them for comparison. Where the call is inconclusive, the potency comes from a doubtful curve fit. The source holds several records for some structures; these can differ, active in one and inactive in another. The source made the active and inactive calls. Unless noted, calls come from the whole dose curve; as a rule, active = well fitted curve in the direction sought with a large enough effect in the repeat runs; inconclusive = weak or mixed curves; inactive = no such curve, though single readings can be large; an effect the other way counts as inactive or inconclusive.
# Key:
# [1] = biological target: Aryl hydrocarbon receptor (Homo sapiens) (UniProt P35869); assay: qHTS assay to identify small molecule that activate the aryl hydrocarbon receptor (AhR) signaling pathway (AID 743085); note: nearly all actives have a fitted effect of over 15% in size;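 for activation: HG2L7.5c1 human HepG2 liver cells with stably integrated DRE-driven firefly reporter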
# Procedure, shortened: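 A multiplexed format paired cell viability (CellTiter-Fluor fluorescence) with AhR-dependent luciferase output (ONE-Glo luminescence) in the same wells of HepG2 DRE-luc cells after 24 h compound exposure at 37C.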
# [2] = biological target: Peroxisome proliferator-activated receptor gamma (Homo sapiens) (UniProt P37231); assay: qHTS assay to identify small molecule antagonists of the peroxisome proliferator-activated receptor gamma (PPARg) signaling pathway (AID 743191; calls by dose curve; note: nearly all actives have a fitted effect of over 30% in size); details: HEK293H PPARg-UAS-bla, beta-lactamase ratio, antagonist, 17 h; ratio activity, negative = inhibition: at 62.6 µM (top of the series) unless noted
# Procedure, shortened: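 Beta-lactamase reporter under UAS control in HEK293H PPARg-bla cells; compound treatment 17 h at 37C. Read-out: fluorescence intensity after 1 h room-temperature incubation with LiveBLAzer B/G FRET substrate.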
# [3] = biological target: Peroxisome proliferator-activated receptor gamma (Homo sapiens) (UniProt P37231); assay: qHTS assay to identify small molecule agonists of the peroxisome proliferator-activated receptor gamma (PPARg) signaling pathway (AID 743094; active = well fitted activation curve with a large enough effect in the signal ratio in the repeat runs, not every such curve was filed as active; inconclusive = weak or mixed curves, or effect the other way; inactive = no such curve, though single readings can be large or run the other way; the % refers to the signal ratio); details: HEK293H PPARg-UAS-bla, beta-lactamase FRET ratio, 17 h; activation: at 57 µM (top of the series) unless noted
# Procedure, shortened: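 Beta-lactamase FRET fluorescence was the read-out after a 1 h room-temperature substrate step, following 17 h compound treatment at 37C of HEK293H cells expressing a UAS-driven bla reporter responsive to PPARg.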
# [4] = qHTS assay to identify small molecule that activate the aryl hydrocarbon receptor (AhR) signaling pathway - cell viability counter screen (AID 743086); note: nearly all actives have a fitted effect of over 45% in size
# Procedure, shortened: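 Cytotoxicity counter screen: CellTiter-Fluor signal (30 min, 37 C) in 4000 HepG2 cells/well carrying the DRE-luciferase reporter, following 24 h compound exposure at 37 C.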
# [5] = qHTS assay to identify small molecule antagonists of the peroxisome proliferator-activated receptor gamma (PPARg) signaling pathway - cell viability counter screen (AID 743194); details: PPARg-bla HEK293H viability, CellTiter-Glo luminescence, 17 h, co-treated with 50 nM rosiglitazone; activity change, negative = cytotoxicity: at 62.6 µM (top of the series) unless noted; note: nearly all actives have a fitted effect of over 55% in size
# Procedure, shortened: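 Viability was measured as CellTiter-Glo luminescence in GeneBLAzer PPARg UAS-bla HEK293H cells. These cells had been exposed 17 h at 37 C to compounds together with rosiglitazone at 50 nM final, with the beta-lactamase readout taken in the same wells.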
# % is set by controls: 0 for no effect and ±100 for the full control effect; potency is the fitted concentration of half-maximal effect; tags give direction and shape of the fitted curve or compound fluorescence and quenching.
# UniProt P35869, sequence (P35869 whole entry, looked up): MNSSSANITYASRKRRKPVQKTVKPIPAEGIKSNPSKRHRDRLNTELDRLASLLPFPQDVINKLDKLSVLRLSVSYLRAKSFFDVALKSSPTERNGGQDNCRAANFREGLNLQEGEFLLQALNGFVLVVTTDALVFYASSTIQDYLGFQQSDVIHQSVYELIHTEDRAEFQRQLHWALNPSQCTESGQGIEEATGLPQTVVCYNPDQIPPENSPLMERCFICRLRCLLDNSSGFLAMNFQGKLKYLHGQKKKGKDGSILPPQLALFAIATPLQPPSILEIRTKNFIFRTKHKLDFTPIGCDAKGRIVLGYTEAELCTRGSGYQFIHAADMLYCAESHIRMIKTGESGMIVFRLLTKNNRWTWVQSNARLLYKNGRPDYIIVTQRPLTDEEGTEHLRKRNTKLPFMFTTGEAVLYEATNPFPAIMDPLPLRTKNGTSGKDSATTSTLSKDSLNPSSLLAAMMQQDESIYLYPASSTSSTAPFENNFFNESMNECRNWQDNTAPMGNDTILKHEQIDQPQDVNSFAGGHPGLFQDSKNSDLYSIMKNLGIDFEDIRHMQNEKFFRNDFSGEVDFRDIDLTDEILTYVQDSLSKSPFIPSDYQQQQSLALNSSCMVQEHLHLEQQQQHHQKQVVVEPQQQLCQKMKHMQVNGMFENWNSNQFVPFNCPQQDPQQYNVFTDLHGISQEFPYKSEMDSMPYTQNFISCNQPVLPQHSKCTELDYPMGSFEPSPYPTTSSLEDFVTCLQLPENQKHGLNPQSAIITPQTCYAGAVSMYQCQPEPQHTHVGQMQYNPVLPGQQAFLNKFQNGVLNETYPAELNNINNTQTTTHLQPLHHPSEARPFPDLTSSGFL
# UniProt P37231, sequence (P37231 whole entry, looked up): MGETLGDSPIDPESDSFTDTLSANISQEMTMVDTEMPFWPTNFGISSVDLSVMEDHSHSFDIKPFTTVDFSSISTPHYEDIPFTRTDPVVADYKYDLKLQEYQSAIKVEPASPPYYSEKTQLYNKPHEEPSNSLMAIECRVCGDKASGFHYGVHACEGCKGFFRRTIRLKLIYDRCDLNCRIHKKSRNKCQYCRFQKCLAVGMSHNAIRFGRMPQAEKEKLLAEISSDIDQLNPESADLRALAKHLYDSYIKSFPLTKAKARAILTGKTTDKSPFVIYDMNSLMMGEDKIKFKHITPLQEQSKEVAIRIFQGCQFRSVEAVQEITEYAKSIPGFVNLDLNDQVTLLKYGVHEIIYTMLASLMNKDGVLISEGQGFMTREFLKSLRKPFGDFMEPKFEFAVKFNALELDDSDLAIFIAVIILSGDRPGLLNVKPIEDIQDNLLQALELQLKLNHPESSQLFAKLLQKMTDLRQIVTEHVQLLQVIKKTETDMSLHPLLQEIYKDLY
smiles,measurement,setting,value
C1=CCC(c2ccccc2)CC1 (stereo not given),Potency,[1],inactive
same,Potency,[2],inactive
CCn1ccnc1CC1COc2ccccc2O1 (stereo not given),Potency,[1],inactive
CC1CCC(C(C)C)C(O)C1 (stereo not given),Potency,[1],inactive
same,Potency,[3],"inconclusive: 54.9 µM [activator, single point]"
Cc1cccc(C)c1NC(=O)CN1CCCC1,Potency,[1],"inconclusive: 23.7 µM [activator, partial curve]"
COc1ccc2nc(NC(=O)Nc3ccccc3)sc2c1,Potency,[1],active: 10.6 µM
same,Potency,[2],inactive
C=CCOc1cc(Cl)ccc1C(=O)NCCN(CC)CC,Potency,[1],inactive
same,Potency,[4],"inconclusive: 33.5 µM [falling, partial curve, poor fit]"
same,"ratio activity, negative = inhibition",[2],inconclusive: -2.01%
CC(C)NCC(O)c1cc(O)cc(O)c1 (stereo not given),Potency,[1],inactive
CCN(O)CC,Potency,[1],"inconclusive: 53.3 µM [activator, partial curve]"
same,"ratio activity, negative = inhibition",[2],inconclusive: -32.4%
CC(C)(C)C(=O)C(Oc1ccc(Cl)cc1)n1ccnc1 (stereo not given),Potency,[1],active: 23.7 µM
same,Potency,[3],"inconclusive: 30.1 µM [rising, partial curve, poor fit]"
same,"ratio activity, negative = inhibition",[2],inconclusive: 24.7%
CC(C)NC[C@@H](O)COc1cccc2ccccc12,Potency,[1],"inconclusive: 26.6 µM [activator, partial curve, poor fit]"
O=S(=O)(O)c1ccc2ccccc2c1,Potency,[1],"inconclusive: 54.5 µM [activator, partial curve, poor fit] and inconclusive: 68.7 µM [activator, partial curve, poor fit]"
same,Potency,[2],inactive
CN(C)CCCNCCC#N,Potency,[1],inactive
same,Potency,[2],inactive
CN1C(=O)CC(C)(c2ccccc2)C1=O (stereo not given),Potency,[1],inactive
COC(=O)[C@H]1[C@H]2C[C@@H]3c4[nH]c5cc(OC)ccc5c4CCN3C[C@H]2C[C@@H](OC(=O)COc2ccc(OC)cc2)[C@@H]1OC,Potency,[1],"inconclusive: 23.7 µM [activator, partial curve, poor fit]"
O=C(/C=C/c1ccccc1)NCCO,Potency,[1],"inconclusive: 33.5 µM [activator, partial curve, poor fit]"
same,"ratio activity, negative = inhibition",[2],inconclusive: -16.6%
Oc1cc(O)c(Cl)cc1Cl,Potency,[1],"inconclusive: 9.93 µM [activator, full curve, poor fit]"
CN(C)CCOCCN(C)C,Potency,[1],active: 62.3 µM
same,"ratio activity, negative = inhibition",[2],inconclusive: -14.8% [at 81.1 µM]
COC(=O)c1ccc2cc(C(=O)OC)ccc2c1,Potency,[1],"inconclusive: 14 µM [activator, partial curve, poor fit]"
CCCCCCCC(=O)OCC(COC(=O)CCCCCCC)OC(=O)CCCCCCC,Potency,[1],inactive
same,Potency,[3],inactive
same,Potency,[2],inactive
C(/C=C/C=C/Nc1ccccc1)=Nc1ccccc1,Potency,[1],"inconclusive: 38.6 µM [activator, partial curve]"
same,"ratio activity, negative = inhibition",[2],inconclusive: 7.76%
CCN(CC)CCNC(=O)c1cc(Br)c(N)cc1OC,Potency,[1],"inconclusive: 23.7 µM [activator, partial curve]"
same,Potency,[4],inactive
O=S(=O)(O)c1cc(I)c(O)c2ncccc12,Potency,[1],"inconclusive: 11.9 µM [activator, full curve, poor fit]"
same,Potency,[2],inactive
CNNCc1ccc(C(=O)NC(C)C)cc1,Potency,[1],"inconclusive: 21.1 µM [activator, partial curve, poor fit]"
CCC(CC)Nc1ccc(C)c(C)c1,Potency,[1],"inconclusive: 24.3 µM [activator, single point]"
CC(=O)c1sc(C)nc1C,Potency,[1],inactive
COP(=O)(O)OP(=O)(O)OC,Potency,[1],inactive
same,Potency,[2],inactive
Cc1ccc(N)cc1[N+](=O)[O-],Potency,[1],"inconclusive: 48.9 µM [activator, partial curve]"
same,activation,[3],inconclusive: -12.9% [at 78.9 µM]
O=C1[C@H](CC[C@H](O)c2ccc(F)cc2)[C@@H](c2ccc(O)cc2)N1c1ccc(F)cc1,Potency,[1],"inconclusive: 29.8 µM [activator, partial curve, poor fit]"
same,Potency,[2],inconclusive: 29.8 µM
COC(=O)Nc1ccc(Cl)c(Cl)c1,Potency,[1],active: 60.8 µM
CC(COc1ccccc1)NN (stereo not given),Potency,[1],"inconclusive: 23.7 µM [activator, partial curve, poor fit]"
same,"ratio activity, negative = inhibition",[2],inconclusive: 12%
CCCOc1ccccc1-c1nc2n[nH]nc2c(=O)[nH]1,Potency,[1],"inconclusive: 13.3 µM [activator, partial curve, poor fit]"
same,Potency,[4],"inconclusive: 21.1 µM [rising, partial curve]"
same,"ratio activity, negative = inhibition",[2],inconclusive: 3.23%
C=CCCCCCCCCC(=O)OCC,Potency,[1],"inconclusive: 77 µM [activator, partial curve, poor fit]"
same,Potency,[2],inconclusive: 24.5 µM [inhibitor]
CC1CCc2cc(F)cc3c(=O)c(C(=O)O)cn1c23 (stereo not given),Potency,[4],inactive
Nc1ccc2ccccc2c1S(=O)(=O)O,Potency,[4],"inconclusive: 27.8 µM [falling, partial curve, poor fit]"
FC(F)(F)C(Cl)Br (stereo not given),Potency,[4],"inconclusive: 10.6 µM [rising, partial curve, poor fit]"
same,Potency,[5],"inconclusive: 0.0539 µM [cytotoxic, full curve, poor fit]"
CC(C)OC(=O)C(C)N(C(=O)c1ccccc1)c1ccc(F)c(Cl)c1 (stereo not given),Potency,[4],"inconclusive: 68.6 µM [falling, single point]"
CC(C#N)(CCC(=O)O)N=NC(C)(C#N)CCC(=O)O (stereo not given),Potency,[4],inactive
same,Potency,[2],inactive
O=C1OC(=O)C2C3C=CC(C3)C12 (stereo not given),Potency,[4],"inconclusive: 24.3 µM [rising, partial curve, poor fit]"
same,"ratio activity, negative = inhibition",[2],inconclusive: -3.77%
CCOC(=O)c1cnc2c(cnn2CC)c1NN=C(C)C,Potency,[3],inactive
SCCOCCOCCS,Potency,[4],inactive
same,Potency,[2],inactive
same,Potency,[5],inactive
COc1ccc2cc(CCC(C)=O)ccc2c1,activation,[3],inconclusive: 3.28% [at 26.2 µM]
CN1[C@@H]2CC[C@H]1CC(OC(=O)c1c[nH]c3ccccc13)C2 (stereo not given in full),Potency,[4],"inconclusive: 37.6 µM [falling, partial curve, poor fit]"
ClCCOCCOCCCl,Potency,[4],"inconclusive: 27.3 µM [rising, partial curve, poor fit]"
same,Potency,[2],inactive
N[C@@H](CCC(=O)Nc1ccc([N+](=O)[O-])cc1)C(=O)O,Potency,[4],"inconclusive: 27.3 µM [falling, partial curve, poor fit]"
same,activation,[3],inconclusive: -13.3%
same,"ratio activity, negative = inhibition",[2],inconclusive: 0.595%
CC1CC(O)CC(C)(C)C1 (stereo not given),Potency,[4],inactive
C/C=C/c1ccc(OCC)c(O)c1,Potency,[1],"inconclusive: 77 µM [activator, single point]"
same,Potency,[5],"inconclusive: 19.5 µM [rising, partial curve, poor fit]"
CC(=O)OCc1ccco1,Potency,[4],inactive
same,Potency,[2],inactive
CCCCNC(=S)NCCCC,Potency,[4],"inconclusive: 34.4 µM [falling, partial curve, poor fit]"
NNS(=O)(=O)c1ccc(Oc2ccc(S(=O)(=O)NN)cc2)cc1,Potency,[3],inactive
CCOC(=O)Cn1c(=O)sc2cccc(Cl)c21,Potency,[3],inactive
CCCOCC(C)O (stereo not given),Potency,[4],inactive
Cc1ccnc(N)c1,Potency,[4],inactive
CC(CC(=O)Cl)CC(C)(C)C (stereo not given),Potency,[4],inactive
same,Potency,[2],inactive
C=CCOc1c(Br)cc(Br)cc1Br,Potency,[1],"inconclusive: 4.33 µM [activator, full curve, poor fit]"
same,Potency,[2],inactive
same,Potency,[5],"inconclusive: 0.0389 µM [cytotoxic, full curve, poor fit]"
CCCNCC(O)COc1ccccc1C(=O)CCc1ccccc1 (stereo not given),Potency,[4],"inconclusive: 29.8 µM [falling, partial curve]"
CN(C)CCN(Cc1ccc(Cl)cc1)c1ccccn1,Potency,[4],"inconclusive: 14.3 µM [falling, single point]"
same,Potency,[2],inconclusive: 26.6 µM [inhibitor]
CCN(CC)CCOC(=O)C1(c2ccccc2)CCCC1,Potency,[1],"inconclusive: 29.8 µM [activator, partial curve, poor fit]"
same,Potency,[2],inactive
same,Potency,[5],inactive
CCN1CN(CC)CN(CC)C1,Potency,[3],inactive
COCC(O)CO (stereo not given),Potency,[4],inactive
same,Potency,[2],inactive
CC(=O)O[Si](C)(OC(C)=O)OC(C)=O,Potency,[4],inactive
same,Potency,[2],inactive
COc1cc(C=O)ccc1OC(=O)C(C)C,Potency,[1],"inconclusive: 77 µM [activator, partial curve, poor fit]"
same,"ratio activity, negative = inhibition",[2],inconclusive: 34.8% [activator]
CC(=O)N[C@H]1[C@H]([C@H](O)[C@H](O)CO)OC(C(=O)O)=C[C@@H]1N=C(N)N,Potency,[4],inactive
same,"ratio activity, negative = inhibition",[2],inconclusive: 14.6%
CC(C)S,Potency,[4],inactive
O=C1CCCC(=O)O1,Potency,[1],inactive
same,Potency,[2],inactive
same,Potency,[5],"inconclusive: 0.275 µM [cytotoxic, full curve, poor fit]"
O=C1CCCC1,Potency,[1],"inconclusive: 69.6 µM [activator, partial curve, poor fit]"
same,"ratio activity, negative = inhibition",[2],inconclusive: -5.09% [at 81.1 µM]
same,Potency,[5],"inconclusive: 0.443 µM [cytotoxic, full curve, poor fit]"
CCCC(=O)c1ccccc1,Potency,[4],"inconclusive: 27.3 µM [rising, partial curve, poor fit]"
same,"ratio activity, negative = inhibition",[2],inconclusive: -4.94%
O=P(c1ccccc1)(c1ccccc1)c1ccccc1,Potency,[4],inactive
CN1CCN(C2=Nc3ccccc3Sc3ccc(Cl)cc32)CC1,Potency,[3],"inconclusive: 4.77 µM [rising, full curve]"
O=C(Nc1ccc2c(c1)Cc1ccccc1-2)C(F)(F)F,Potency,[4],inactive
same,"ratio activity, negative = inhibition",[2],inconclusive: -0.31%
O=c1oc2c(O)c(O)cc3c(=O)oc4c(O)c(O)cc1c4c23,Potency,[1],inactive
same,Potency,[5],inactive
CCN(CC)CCNC(C(=O)OCCC(C)C)c1ccccc1 (stereo not given),Potency,[4],"inconclusive: 0.0596 µM [rising, full curve, poor fit]"
same,Potency,[2],inactive
CC[C@]12CCCN3CCc4c(n(c5ccccc45)C(=O)C1)[C@@H]32,Potency,[4],inconclusive: 12.7 µM
same,"ratio activity, negative = inhibition",[2],inconclusive: 0.434%
